Assay [1] deals with T1, human CD137 expressed on the cell surface of HEK293T cells (human, UniProt Q07011 24-255).
T1 construct: Stably or transiently transfected HEK293T cells; also on HEK293T and Jurkat T NFκB reporter cells; also called human CD137 (WT); 4-1BB
Nature of the assay: immunofluorescence imaging binding assay on human CD137-expressing HEK293T cells; one concentration, not given.

The target in assay [2] is T2, human recombinant PD-L1 protein (Acro Biosystems, cat #: PD1-H5229) (human, UniProt Q9NZQ7 fragment).
T2 construct: Bought protein; also called human PD-L1; recombinant human PD-L1
T2 sequence (Q9NZQ7 19-238 limits assumed): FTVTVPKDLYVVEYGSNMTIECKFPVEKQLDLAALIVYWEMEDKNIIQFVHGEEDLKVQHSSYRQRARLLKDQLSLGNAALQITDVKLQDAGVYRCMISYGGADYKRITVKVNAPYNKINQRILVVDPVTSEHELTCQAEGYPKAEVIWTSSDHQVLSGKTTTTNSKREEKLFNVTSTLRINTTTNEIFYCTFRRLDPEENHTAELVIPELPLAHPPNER
Put plainly: SPR (Biacore3000), antibody captured by anti-human IgG on CM5, PD-L1 as analyte, 1:1 binding with mass transfer. In general terms: In SPR one partner is held on a chip, and binding of the other changes the refractive index at the surface.

Assay [3] addresses T3, human CD137 (Sino Biological, cat #10041-H08H) (human, UniProt Q07011 24-186).
T3 construct: Bought protein used as the analyte in SPR; also called CD137 antigen in Biacore
Put plainly: SPR (Biacore3000), antibody captured by anti-human IgG on CM5, CD137 as analyte, 1:1 binding with mass transfer.

B1: 1923Ab7 (other)
heavy: QVQLVQSGAEVKKPGASVKVSCKASGYTFTSYDINWVRQATGQGLEWMGWMNPNSGITGYAQRFQGRVTMTRDTSISTAYMELSSLRSEDTAVYYCARHRWGKGYLDLWGRGTLVTVSSASTKGPSVFPLAPSSKSTSGGTAALGCLVKDYFPEPVTVSWNSGALTSGVHTFPAVLQSSGLYSLSSVVTVPSSSLGTQTYICNVNHKPSNTKVDKKV[gap - human IgG1 Fc with changes]GGGSGGGGSGGGGSQVQLVESGGGVVQPGRSLRLSCAASGFTFSNYGMHWVRQAPGKGLEWVAIIWYDGINKYYADSVKGRFTISRDNSKNTLYLQMNSLKAEDTAVYYCARDQDYDILTGYYKEDYFDFWGQGTLVTVSSGGGGSGGGGSGGGGSSYELTQPPSVSVSPGQTARITCSGDALPKKYAYWYQQKSGQAPVLVIYEDSKRPSGIPERFSGSSSGTMATLTISGAQVEDEADYYCYSTDSSGNRVFGGGTKLTVL
light: EIVMAQSPATLSLSPGERATLSCRASQSVSSSYLSWFQQKPGQAPRLLIYGASTRATGIPARFGGSGSGTDFTLTISSLQPEDFAVYYCQQDYNLPYTFGQGTKLEIKRTVAAPSVFIFPPSDEQLKSGTASVVCLLNNFYPREAKVQWKVDNALQSGNSQESVTEQDSKDSTYSLSSTLTLSKADYEKHKVYACEVTHQGLSSPVTKSFNRGECGGGGSGGGGSGGGGSTIPPHVQKSVNNDMIVTDNNGAVKFPQLCKFCDVRFSTCDNQKSCMSNCSITSICEKPQEVCVAVWRKNDENITLETVCHDPKLPYHDFILEDAASPKCIMKEKKKPGETFFMCSCSSDECNDNIIFSEEYNTSNPD
notes: also called PD-L1/TGFβ/CD137 trispecific 1923Ab7
As to B1, in assay [1], the binding result is “binds”.

B2: 1923Ab8 (bispecific antibody, human IgG1, kappa)
heavy: QVQLVQSGAEVKKPGASVKVSCKASGYTFTSYDINWVRQATGQGLEWMGWMNPNSGITGYAQRFQGRVTMTRDTSISTAYMELSSLRSEDTAVYYCARHRWGKGYLDLWGRGTLVTVSSASTKGPSVFPLAPSSKSTSGGTAALGCLVKDYFPEPVTVSWNSGALTSGVHTFPAVLQSSGLYSLSSVVTVPSSSLGTQTYICNVNHKPSNTKVDKKV[gap - human IgG1 Fc with changes]GGGSGGGGSGGGGSQVQLVESGGGVVQPGRSLRLSCAASGFTFSNYGMHWVRQAPGKGLEWVAIIWYDGINKYYADSVKGRFTISRDNSKNTLYLQMNSLKAEDTAVYYCARDQDYDILTGYYKEDYFDFWGQGTLVTVSSGGGGSGGGGSGGGGSSYELTQPPSVSVSPGQTARITCSGDALPKKYAYWYQQKSGQAPVLVIYEDSKRPSGIPERFSGSSSGTMATLTISGAQVEDEADYYCYSTDSSGNRVFGGGTKLTVL
light: EIVMAQSPATLSLSPGERATLSCRASQSVSSSYLSWFQQKPGQAPRLLIYGASTRATGIPARFGGSGSGTDFTLTISSLQPEDFAVYYCQQDYNLPYTFGQGTKLEIKRTVAAPSVFIFPPSDEQLKSGTASVVCLLNNFYPREAKVQWKVDNALQSGNSQESVTEQDSKDSTYSLSSTLTLSKADYEKHKVYACEVTHQGLSSPVTKSFNRGEC
notes: 1923Ab3 IgG1 L234A L235A scaffold with 1923Ab4 scFv (VH-VL) at the C-terminus of each heavy chain; also called PD-L1/CD137 bispecific 1923Ab8
With B2, the binding result in assay [1] is reported as “binds”.

B3: 1923Ab9 (other)
heavy 1: QVQLVQSGAEVKKPGASVKVSCKASGYTFTSYDINWVRQATGQGLEWMGWMNPNSGITGYAQRFQGRVTMTRDTSISTAYMELSSLRSEDTAVYYCARHRWGKGYLDLWGRGTLVTVSSASTKGPSVFPLAPSSKSTSGGTAALGCLVKDYFPEPVTVSWNSGALTSGVHTFPAVLQSSGLYSLSSVVTVPSSSLGTQTYICNVNHKPSNTKVDKKV[gap - human IgG1 Fc with changes]GGGSGGGGSGGGGSQVQLVESGGGVVQPGRSLRLSCAASGFTFSNYGMHWVRQAPGKGLEWVAIIWYDGINKYYADSVKGRFTISRDNSKNTLYLQMNSLKAEDTAVYYCARDQDYDILTGYYKEDYFDFWGQGTLVTVSSGGGGSGGGGSGGGGSSYELTQPPSVSVSPGQTARITCSGDALPKKYAYWYQQKSGQAPVLVIYEDSKRPSGIPERFSGSSSGTMATLTISGAQVEDEADYYCYSTDSSGNRVFGGGTKLTVL
heavy 2: QVQLVQSGAEVKKPGASVKVSCKASGYTFTSYDINWVRQATGQGLEWMGWMNPNSGITGYAQRFQGRVTMTRDTSISTAYMELSSLRSEDTAVYYCARHRWGKGYLDLWGRGTLVTVSSASTKGPSVFPLAPSSKSTSGGTAALGCLVKDYFPEPVTVSWNSGALTSGVHTFPAVLQSSGLYSLSSVVTVPSSSLGTQTYICNVNHKPSNTKVDKKVEPKSCDKTHTCPPCPAPEAAGGPSVFLFPPKPKDTLMISRTPEVTCVVVDVSHEDPEVKFNWYVDGVEVHNAKTKPREEQYNSTYRVVSVLTVLHQDWLNGKEYKCKVSNKALPAPIEKTISKAKGQPREPQVCTLPPSRDELTKNQVSLSCAVKGFYPSDIAVEWESNGQPENNYKTTPPVLDSDGSFFLVSKLTVDKSRWQQGNVFSCSVMHEALHNHYTQKSLSLSPGK
light: EIVMAQSPATLSLSPGERATLSCRASQSVSSSYLSWFQQKPGQAPRLLIYGASTRATGIPARFGGSGSGTDFTLTISSLQPEDFAVYYCQQDYNLPYTFGQGTKLEIKRTVAAPSVFIFPPSDEQLKSGTASVVCLLNNFYPREAKVQWKVDNALQSGNSQESVTEQDSKDSTYSLSSTLTLSKADYEKHKVYACEVTHQGLSSPVTKSFNRGECGGGGSGGGGSGGGGSTIPPHVQKSVNNDMIVTDNNGAVKFPQLCKFCDVRFSTCDNQKSCMSNCSITSICEKPQEVCVAVWRKNDENITLETVCHDPKLPYHDFILEDAASPKCIMKEKKKPGETFFMCSCSSDECNDNIIFSEEYNTSNPD
notes: monovalent for CD137; also called PD-L1/TGFβ/CD137 trispecific 1923Ab9
On to B3, for which the binding result in assay [1] was “binds”.

B4: 1923Ab17 (other)
heavy: QVQLVQSGAEVKKPGASVKVSCKASGYTFTSYDINWVRQATGQGLEWMGWMNPNSGITGYAQRFQGRVTMTRDTSISTAYMELSSLRSEDTAVYYCARHRWGKGYLDLWGRGTLVTVSSASTKGPSVFPLAPSSKSTSGGTAALGCLVKDYFPEPVTVSWNSGALTSGVHTFPAVLQSSGLYSLSSVVTVPSSSLGTQTYICNVNHKPSNTKVDKKV[gap - human IgG1 Fc with changes]GGGSGGGGSGGGGSQVQLVESGGGVVQPGRSLRLSCAASGFTFSNYGMHWVRQAPGKCLEWVAIIWYDGINKYYADSVKGRFTISRDNSKNTLYLQMNSLKAEDTAVYYCARDQDYDILTGYYKEDYFDFWGQGTLVTVSSGGGGSGGGGSGGGGSGGGGSSYELTQPPSVSVSPGQTARITCSGDALPKKYAYWYQQKSGQAPVLVIYEDSKRPSGIPERFSGSSSGTMATLTISGAQVEDEADYYCYSTDSSGNRVFGCGTKLTVL
light: EIVMAQSPATLSLSPGERATLSCRASQSVSSSYLSWFQQKPGQAPRLLIYGASTRATGIPARFGGSGSGTDFTLTISSLQPEDFAVYYCQQDYNLPYTFGQGTKLEIKRTVAAPSVFIFPPSDEQLKSGTASVVCLLNNFYPREAKVQWKVDNALQSGNSQESVTEQDSKDSTYSLSSTLTLSKADYEKHKVYACEVTHQGLSSPVTKSFNRGECGGGGSGGGGSGGGGSTIPPHVQKSVNNDMIVTDNNGAVKFPQLCKFCDVRFSTCDNQKSCMSNCSITSICEKPQEVCVAVWRKNDENITLETVCHDPKLPYHDFILEDAASPKCIMKEKKKPGETFFMCSCSSDECNDNIIFSEEYNTSNPD
notes: also called PD-L1/TGFβ/CD137 trispecific 1923Ab17
On to B4, for which, in assay [2], the Kd (as a rule, a measure of binding affinity in units of concentration) was 2.22 nM; the koff (as a rule, a measure of how fast the partners let go of each other) came out at 0.00267 s⁻¹; the kon (commonly the rate constant with which the complex forms) was 1.2e+06 M⁻¹ s⁻¹. In assay [3], the dissociation constant Kd is 19.3 nM, the koff was found to be 0.0483 s⁻¹ and the kon came out at 2.5e+06 M⁻¹ s⁻¹.

B5: 1923Ab18 (bispecific antibody, human IgG1, kappa)
heavy: QVQLVQSGAEVKKPGASVKVSCKASGYTFTSYDINWVRQATGQGLEWMGWMNPNSGITGYAQRFQGRVTMTRDTSISTAYMELSSLRSEDTAVYYCARHRWGKGYLDLWGRGTLVTVSSASTKGPSVFPLAPSSKSTSGGTAALGCLVKDYFPEPVTVSWNSGALTSGVHTFPAVLQSSGLYSLSSVVTVPSSSLGTQTYICNVNHKPSNTKVDKKV[gap - human IgG1 Fc with changes]GGGSGGGGSGGGGSQVQLVESGGGVVQPGRSLRLSCAASGFTFSNYGMHWVRQAPGKCLEWVAIIWYDGINKYYADSVKGRFTISRDNSKNTLYLQMNSLKAEDTAVYYCARDQDYDILTGYYKEDYFDFWGQGTLVTVSSGGGGSGGGGSGGGGSGGGGSSYELTQPPSVSVSPGQTARITCSGDALPKKYAYWYQQKSGQAPVLVIYEDSKRPSGIPERFSGSSSGTMATLTISGAQVEDEADYYCYSTDSSGNRVFGCGTKLTVL
light: EIVMAQSPATLSLSPGERATLSCRASQSVSSSYLSWFQQKPGQAPRLLIYGASTRATGIPARFGGSGSGTDFTLTISSLQPEDFAVYYCQQDYNLPYTFGQGTKLEIKRTVAAPSVFIFPPSDEQLKSGTASVVCLLNNFYPREAKVQWKVDNALQSGNSQESVTEQDSKDSTYSLSSTLTLSKADYEKHKVYACEVTHQGLSSPVTKSFNRGEC
notes: 1923Ab3 IgG1 L234A L235A scaffold with disulfide-stabilized 1923Ab4 scFv (VH-VL) at the C-terminus of each heavy chain; also called PD-L1/CD137 bispecific 1923Ab18
Turning to B5, in assay [2], the Kd is 3.49 nM, the koff was found to be 0.0023 s⁻¹ and the kon was 659000 M⁻¹ s⁻¹. In assay [3], the Kd was determined as 22.3 nM, the off-rate constant (koff) was determined as 0.038 s⁻¹ and the kon amounted to 1.7e+06 M⁻¹ s⁻¹.

These data come from US20250002599A1 (NOVAROCK BIOTHERAPEUTICS, published 2025).
